Test results taken from PubChem BioAssay (NCI).
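Compound exposure: 48 hours, 5 concentrations, 96-well plates. Here, GI50 denotes the concentration required for 50% inhibition of growth. TGI is the concentration that stops growth completely.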

System: NCI-H322M lung
Assay: NCI-60 cell line screen, 48 h

SMILES	GI50 [µM]	TGI [µM]
Cc1cc(C(NC(=O)C2CC3(CC(Nc4cccc5c4C(=O)N(C4CCC(=O)NC4=O)C5=O)C3)C2)c2ccc3c(c2)OC(F)(F)O3)c(O)c2ncccc12 (stereo not drawn)	0.419	> 100
Cn1cc(-c2cc3nc(-c4c[nH]c5ccccc45)cc(N)n3n2)c2ccccc21	3.12	12
COc1cc2oc(-c3cccc(C(=O)Nc4ccc(Cl)cc4)c3)cc(=O)c2c(OCCN)c1OC	9.46	21.3
COc1ccc(OC)c(/C=C/C(=O)c2nc3ccccc3n2Cc2ccc(F)cc2)c1	3.08	19.3
